Read-outs that look alike come from different tables or passages of the source.
Legend:
NCI-H322M [1] = conditions: for GI50: read-out: Median Growth Inhibitory Concentration (GI50), Non-Small Cell Lung Cancer, 48 hours
NCI-H322M [2] = assay: cells; conditions: Homo sapiens, 48 h; for GI50: read-out: Median Growth Inhibitory Concentration (GI50); for CC50: read-out: Median Lethal Concentration (LC50)

Molecule	GI50 (NCI-H322M [1])	GI50 (NCI-H322M [2])	CC50 (NCI-H322M [2])	CC50 (NCI-H322M [1]; read-out: Median Lethal Concentration (LC50), Non-Small Cell Lung Cancer, 48 hours, SRB assay)
3,5-Bis(2-hydroxybenzylidene)-sulfone [EF11]	36.5 µM	–	–	–
N.N.[Cl][Pt][Cl] [Cisplatin, reference compound]	1.3 µM	–	–	–
COc1cc(/C=C/C(=O)CC(=O)/C=C/c2ccc(O)c(OC)c2)ccc1O [Curcumin]	–	15.8 µM	63.1 µM	–
O=C1C(=Cc2ccccc2O)CCCC1=Cc1ccccc1O [EF4, 2,6Bis(2-hydroxybenzylidene)cyclohexanone]	–	2.7 µM	42.3 µM	–
CC1(/C=C/c2ccccc2O)C=Cc2ccccc2O1 (centres unmarked) [EF7]	–	16.9 µM	56 µM	–
O=C(C=Cc1ccc(F)cc1F)C=Cc1ccc(F)cc1F [EF9, 1,5-Bis(2,4-difluorophenyl)penta-1,4-dien-3-one]	–	16.7 µM	55.6 µM	–
C(=C\c1ccccc1)/S/C=C/c1ccccc1 [EF15]	> 100 µM	–	–	–
OC(CCc1ccc(F)cc1F)CCc1ccc(F)cc1F [EF19, 1,5-Bis(2,4-difluorophenyl)-pentan-3-ol]	–	20.3 µM	59.2 µM	–
CC(=O)O.O=C1C(=Cc2ccccc2F)CNCC1=Cc1ccccc1F [EF24, 3,5-Bis-(2-fluorobenzylidene)-piperidin-4-one-acetate]	–	1.4 µM	17 µM	–
O=C1C(=Cc2ccccc2O)COCC1=Cc1ccccc1O [EF25, 3,5-Bis(2-hyrdoxybenzylidene)tetrahydro4-H-pyran4-one]	1.9 µM	–	–	32.2 µM
